The subject of experiment [1] is RAW-Dual. The experiment can be described thus: IRF Lucia reporter activity, fold change vs agonist alone; cytotoxicity flag (confluency mask): not cytotoxic; higher = enhanced IRF activity. Summed up: (§1)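 After 50 nL of library stock was delivered by pin tool to RAW-Dual macrophages (50,000 cells/well, DMEM, 384-well plates), a PRR agonist was added 1 h later and the plates were kept at 37 °C, 5% CO2. Twenty hours later, IRF was read from supernatant by QuantiLuc luminescence and NF-κB by QuantiBlue absorbance at 620 nm. Reporter activity is stated as fold change over agonist-alone wells. Wells with IncuCyte confluency under 70% of agonist controls in both mask sets were counted as cytotoxic.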

In experiment [2] the test system is RAW-Dual. Nature of the experiment: IRF Lucia reporter activity, fold change vs agonist alone; higher = enhanced IRF activity. The following applies: library stock concentration (final ~1000-fold dilution): 10 mM, agonist: MPLA (TLR4) […]. Summed up:
as §1

The test system of experiment [3] is RAW-Dual. The experiment can be described thus: IRF Lucia reporter activity, fold change vs agonist alone; cytotoxicity flag (confluency mask): cytotoxic (confluency <70% of control); higher = enhanced IRF activity. Summed up:
as §1

The mark [4] stands for this setting: agonist: 3'3'-cGAMP (STING) 10 ug/mL.
The mark [5] stands for this setting: cytotoxicity flag (confluency mask): not cytotoxic.

From the supplement of paper PMC10037445 come the findings set out here.

“And” between values parts separate entries of the source, which are not always exact repeats. Equal entries are not always repeated. ± gives the standard deviation of the averaged measurements. In all, about 2,900 compounds were measured (“IRF Lucia reporter activity, fold change vs agonist alone”: median about 0.9, highest 2% from about 2.8 on). This is one part of the list.

On to `Cl.Cl.c1cc(-c2nc3ccc(OCCCN4CCCC4)cc3o2)ccc1OCCCN1CCCC1` (library stock concentration (final ~1000-fold dilution): 1 mM), for which the results for the “IRF Lucia reporter activity” value in the experiment on RAW-Dual [1] (setting [4]) and with RAW-Dual [1] (agonist: LPS (TLR4) 0.1 ug/mL) were 0.861 and 1.07, respectively.
With `CC(ONC(=O)c1cc(C(F)(F)F)cc(C(F)(F)F)c1)C(=O)Nc1ccc(Cl)cc1` (centres undefined) (library stock concentration (final ~1000-fold dilution): 10 mM), the “IRF Lucia reporter activity” value with RAW-Dual [1] (setting [4]) and with RAW-Dual [1] (agonist: LPS (TLR4) 0.1 ug/mL) was 0.52 each time.
For the compound `CC(Nc1ncnc(N)c1C#N)c1cc2cccc(-c3ccc(=O)n(C)c3)c2c(=O)n1C(C)C` (centres undefined), in the experiment with RAW-Dual [2] (setting [5]), the “IRF Lucia reporter activity” value was found to be 7.07.
Turning to `CC(Nc1ncnc(N)c1C#N)c1cc2cccc(-c3ccc(=O)n(C)c3)c2c(=O)n1C(C)C` (centres undefined) (library stock concentration (final ~1000-fold dilution): 10 mM), the “IRF Lucia reporter activity” value was 1.14 in the experiment on RAW-Dual [1] (setting [4]) and 8.45 with RAW-Dual [1] (agonist: LPS (TLR4) 0.1 ug/mL).
In the case of `CC1OC(OC2C(O)C(OCCc3ccc(O)c(O)c3)OC(CO)C2OC(=O)/C=C/c2ccc(O)c(O)c2)C(O)C(O)C1O` (centres undefined) (library stock concentration (final ~1000-fold dilution): 10 mM), the “IRF Lucia reporter activity” value in the experiment with RAW-Dual [1] (setting [4]) turned out to be 1.02; with RAW-Dual [1] (agonist: LPS (TLR4) 0.1 ug/mL), 1.15.
Regarding `CC1OC(OC2C(O)C(OCCc3ccc(O)c(O)c3)OC(CO)C2OC(=O)/C=C/c2ccc(O)c(O)c2)C(O)C(O)C1O` (centres undefined), in the experiment on RAW-Dual [2] (setting [5]), the “IRF Lucia reporter activity” value is 1.02.
For `COc1ccc2[nH]cc(C=C3C(=O)Nc4ccc(NC(=O)CCN5CCCCC5)cc43)c2c1` (library stock concentration (final ~1000-fold dilution): 10 mM), the “IRF Lucia reporter activity” value came out at 0.5 with RAW-Dual [3] (setting [4]) and 0.815 in the experiment on RAW-Dual [3] (agonist: LPS (TLR4) 0.1 ug/mL).
`Cl.Cl.OCCN1CCN(CC/C=C2/c3ccccc3Sc3ccc(C(F)(F)F)cc32)CC1`: the “IRF Lucia reporter activity” value in the experiment with RAW-Dual [2] (cytotoxicity flag (confluency mask): cytotoxic (confluency <70% of control)) was determined as 1.02.
Turning to `Cl.Cl.OCCN1CCN(CC/C=C2/c3ccccc3Sc3ccc(C(F)(F)F)cc32)CC1` (library stock concentration (final ~1000-fold dilution): 10 mM), the “IRF Lucia reporter activity” value with RAW-Dual [3] (setting [4]) amounted to 0.504; in the experiment on RAW-Dual [3] (agonist: LPS (TLR4) 0.1 ug/mL), 0.656.
For the compound `COc1c(Cl)cc2c([nH]c3cnccc32)c1NC(=O)c1cccnc1C` (library stock concentration (final ~1000-fold dilution): 10 mM), the figures for the “IRF Lucia reporter activity” value in the experiment with RAW-Dual [1] (setting [4]) and in the experiment with RAW-Dual [1] (agonist: LPS (TLR4) 0.1 ug/mL) were 0.361 and 0.346, respectively.
With `O=C(/C=C/c1cccnc1)NCCCCC1CCN(C(=O)c2ccccc2)CC1`, the “IRF Lucia reporter activity” value with RAW-Dual [2] (setting [5]) was 0.813.
On to `O=C(/C=C/c1cccnc1)NCCCCC1CCN(C(=O)c2ccccc2)CC1` (library stock concentration (final ~1000-fold dilution): 10 mM), for which the “IRF Lucia reporter activity” value is 0.698 in the experiment on RAW-Dual [1] (setting [4]) and 0.695 in the experiment on RAW-Dual [1] (agonist: LPS (TLR4) 0.1 ug/mL).
With `CCOC(=O)c1c2c3c(cccc3[nH]c1=O)C(=O)c1ccccc1-2` (library stock concentration (final ~1000-fold dilution): 10 mM), the “IRF Lucia reporter activity” value is 0.997 with RAW-Dual [1] (setting [4]) and 0.492 in the experiment on RAW-Dual [1] (agonist: LPS (TLR4) 0.1 ug/mL).
`CN(Cc1cc(Br)cc(Br)c1N)C1CCCCC1` (library stock concentration (final ~1000-fold dilution): 10 mM): the “IRF Lucia reporter activity” value with RAW-Dual [3] (setting [4]) was 0.733; in the experiment with RAW-Dual [3] (agonist: LPS (TLR4) 0.1 ug/mL) it was 1.49.
Regarding `Nc1nc(N)c2nc(-c3cccc(O)c3)c(-c3cccc(O)c3)nc2n1` (library stock concentration (final ~1000-fold dilution): 10 mM), the “IRF Lucia reporter activity” value is 0.982 in the experiment with RAW-Dual [1] (setting [4]) and 1 in the experiment with RAW-Dual [1] (agonist: LPS (TLR4) 0.1 ug/mL).
For `Nc1nc(N)c2nc(-c3cccc(O)c3)c(-c3cccc(O)c3)nc2n1`, in the experiment with RAW-Dual [2] (setting [5]), the “IRF Lucia reporter activity” value was 1.08.
For `Cn1cnc2c(F)c(Nc3ccc(Br)cc3Cl)c(C(=O)NOCCO)cc21`, the “IRF Lucia reporter activity” value with RAW-Dual [2] (setting [5]) came out at 2.77.
In the case of `Cn1cnc2c(F)c(Nc3ccc(Br)cc3Cl)c(C(=O)NOCCO)cc21` (library stock concentration (final ~1000-fold dilution): 10 mM), the “IRF Lucia reporter activity” value was 0.69 in the experiment with RAW-Dual [1] (setting [4]) and 3.1 in the experiment on RAW-Dual [1] (agonist: LPS (TLR4) 0.1 ug/mL).
In the case of `Cl.OCCNCc1ccc(OCc2ccc(F)cc2)c(OCc2ccc(F)cc2)c1` (library stock concentration (final ~1000-fold dilution): 10 mM), the “IRF Lucia reporter activity” value with RAW-Dual [3] (setting [4]) amounted to 0.0797; with RAW-Dual [3] (agonist: LPS (TLR4) 0.1 ug/mL) it was 0.952.
With `NC(=O)c1ccccc1`, the “IRF Lucia reporter activity” value with RAW-Dual [2] (setting [5]) was 0.951.
Turning to `NC(=O)c1ccccc1` (library stock concentration (final ~1000-fold dilution): 10 mM), the “IRF Lucia reporter activity” value was found to be 1.04 with RAW-Dual [1] (setting [4]) and 1.13 with RAW-Dual [1] (agonist: LPS (TLR4) 0.1 ug/mL).
As to `O=C(c1ccccc1)c1ccc2nc(NC(=O)c3csc(C4CCN(c5ncnc6ccsc56)CC4)n3)[nH]c2c1`, the “IRF Lucia reporter activity” value in the experiment with RAW-Dual [2] (setting [5]) came to 1.73 ± 0.62.
With `O=C(c1ccccc1)c1ccc2nc(NC(=O)c3csc(C4CCN(c5ncnc6ccsc56)CC4)n3)[nH]c2c1` (library stock concentration (final ~1000-fold dilution): 10 mM), the “IRF Lucia reporter activity” value with RAW-Dual [1] (setting [4]) was 0.269 and 0.414; in the experiment on RAW-Dual [1] (agonist: LPS (TLR4) 0.1 ug/mL), 2.37 and 1.82.
Regarding `Cn1c(N2CCCCS2(=O)=O)nc(C(=O)NCc2ccc(F)cc2)c(O)c1=O`, the “IRF Lucia reporter activity” value in the experiment with RAW-Dual [2] (setting [5]) amounted to 1.65.
In the case of `Cn1c(N2CCCCS2(=O)=O)nc(C(=O)NCc2ccc(F)cc2)c(O)c1=O` (library stock concentration (final ~1000-fold dilution): 10 mM), the figures for the “IRF Lucia reporter activity” value in the experiment with RAW-Dual [1] (setting [4]) and with RAW-Dual [1] (agonist: LPS (TLR4) 0.1 ug/mL) were 1.05 and 0.931, respectively.
Take `C=CC1(C)CC(OC(=O)CSCCN(CC)CC)C2(C)C(C)CCC3(CCC(=O)C32)C(C)C1O.O=C(O)/C=C/C(=O)O` (centres undefined): in the experiment on RAW-Dual [2] (setting [5]), the “IRF Lucia reporter activity” value turned out to be 0.996.
In the case of `C=CC1(C)CC(OC(=O)CSCCN(CC)CC)C2(C)C(C)CCC3(CCC(=O)C32)C(C)C1O.O=C(O)/C=C/C(=O)O` (centres undefined) (library stock concentration (final ~1000-fold dilution): 10 mM), the figures for the “IRF Lucia reporter activity” value in the experiment on RAW-Dual [1] (setting [4]) and with RAW-Dual [1] (agonist: LPS (TLR4) 0.1 ug/mL) were 0.347 and 0.803, respectively.
